{"source": "PubChem BioAssay AID463173", "about": "(ICCB-Longwood Screening Facility, Harvard Medical School, 2010)", "note": "Among all 52,000 compounds or so, about 1,700 (3.3%) were called active. No stated cut-off is given here; in the data, active means survival mostly below about 52% (no sharp cut-off); inactive means mostly above about 56%. This is one part of the list.", "data": [{"tested_on": "Wild type", "test": "growth inhibition of S. aureus wild type versus tarO mutant, primary screen, teichoic acid synthesis inhibitors, RN4220, OD600 (AID 463173)", "settings": "S. aureus RN4220 wild type/DeltatarO growth, OD600, 18 h, hits give low values, screened at 18.75 µg/mL (by protocol)", "values": [{"smiles": "O=C(NC1CCN(C(=O)NCc2ccccc2)CC1)c1ccco1", "survival": "inactive: 107%"}, {"smiles": "Cc1nc(C)c(CCNS(=O)(=O)c2ccc(C)c(C)c2)s1", "survival": "inactive: 99%"}, {"smiles": "CCOc1ccccc1NC(=O)c1c(NCc2ccc(C)o2)sc2c1CCCCC2", "survival": "inactive: 66%"}, {"smiles": "CC(C)C(=O)CC(c1ccccc1)C1C(=O)NC(=O)NC1=O", "note": "(configuration not stated)", "survival": "inactive: 105%"}, {"smiles": "Cc1ccc(Cc2nc3ccccc3nc2SCC(=O)N2CCCCC2)cc1", "survival": "inactive: 73%"}, {"smiles": "O=c1oc2c(F)cc(F)cc2cc1S(=O)(=O)c1ccc(F)cc1", "survival": "inactive: 104%"}, {"smiles": "CCOc1ccc(CN2CCN(S(=O)(=O)c3ccc(Cl)cc3)CC2)cc1", "survival": "inactive: 55%"}, {"smiles": "CCOc1ccc(N(CC)C(=O)c2cc3c(=O)oc4ccccc4c3s2)cc1", "survival": "inactive: 64%"}, {"smiles": "O=C(Cn1cc(S(=O)(=O)c2ccc(F)cc2)c(=O)c2cc3c(cc21)OCO3)Nc1ccccc1", "survival": "inactive: 85%"}, {"smiles": "Cc1ccn2c(=O)c(C(=O)Nc3ccc(F)c(C(F)(F)F)c3)cnc2c1", "survival": "inactive: 84%"}, {"smiles": "Cc1oc(-c2ccccc2F)nc1CN1CCC(C(=O)NCCc2ccc(Cl)cc2)CC1", "survival": "inactive: 79%"}, {"smiles": "CCOC(=O)Cn1nnc(-c2ccccc2)n1", "survival": "inactive: 98%"}, {"smiles": "CCOc1ccc(-c2nonc2NC(=O)c2oc3ccc(Cl)cc3c2C)cc1", "survival": "inactive: 85%"}, {"smiles": "Cc1cccc(NC(=O)C(=O)NCC(c2cccnc2)N2CCc3ccccc32)c1C", "note": "(configuration not stated)", "survival": "inactive: 81%"}, {"smiles": "N#CCC(=O)Nc1nccs1", "survival": "inactive: 108%"}, {"smiles": "CCOC(=O)c1c(CC(C)C)csc1NC(C)=O", "survival": "inactive: 104%"}, {"smiles": "COc1ccc(-c2nnn3c2nc(NCc2ccccc2)c2ccccc23)cc1", "survival": "inactive: 96%"}, {"smiles": "COc1cccc(NC(=O)c2oc3ccccc3c2NC(=O)COc2ccccc2C)c1", "survival": "inactive: 125%"}, {"smiles": "COC(=O)c1ccccc1NC(=O)CCCn1nc(C)c2sc3ccccc3c2c1=O", "survival": "inactive: 82%"}, {"smiles": "CC1=C(C(=O)Nc2ccc(C)cc2C)C(CC(C)C)n2nc(SCc3ccccc3C)nc2N1", "note": "(configuration not stated)", "survival": "inactive: 95%"}, {"smiles": "CCOc1ccc(-c2cc(C(=O)NCc3ccc(OCC)c(OC)c3)[nH]n2)cc1", "survival": "inactive: 58%"}, {"smiles": "O=c1c2sc3ccccc3c2n(Cc2ccc(F)cc2)c(=O)n1Cc1ccccc1", "survival": "inactive: 140%"}, {"smiles": "CCc1cccc(CC)c1NC(=O)CCS(=O)(=O)c1ccc(Br)cc1", "survival": "inactive: 127%"}, {"smiles": "Cc1ccc(NC(=O)CSc2ncccc2C(=O)Oc2ccccc2Cl)cc1Cl", "survival": "inactive: 74%"}, {"smiles": "N=c1c2c3c(sc2ncn1CCCn1ccnc1)CCCCC3", "survival": "inactive: 105%"}, {"smiles": "COc1ccc2[nH]cc(CCNC(=O)Nc3c(C)cccc3C)c2c1", "survival": "inactive: 96%"}, {"smiles": "Cc1cc(C)n2nc(SCC(=O)Nc3ccc(O)cc3)nc2n1", "survival": "inactive: 82%"}]}]}
